T1: Recombinant human IL-1 RI protein (interleukin-1 receptor type 1) (human, UniProt P14778 18-336)
T1 construct: interleukin-1 receptor type 1, human, recombinant; No catalogue number is printed; the bought soluble protein is probably the extracellular domain, with or without a tag or Fc (surmise); In the functional rows this id stands for IL-1R1 on the surface of HEK-Blue IL-1β reporter cells; also called IL-1R1; source: bought: R&D Systems
T1 sequence (looked up): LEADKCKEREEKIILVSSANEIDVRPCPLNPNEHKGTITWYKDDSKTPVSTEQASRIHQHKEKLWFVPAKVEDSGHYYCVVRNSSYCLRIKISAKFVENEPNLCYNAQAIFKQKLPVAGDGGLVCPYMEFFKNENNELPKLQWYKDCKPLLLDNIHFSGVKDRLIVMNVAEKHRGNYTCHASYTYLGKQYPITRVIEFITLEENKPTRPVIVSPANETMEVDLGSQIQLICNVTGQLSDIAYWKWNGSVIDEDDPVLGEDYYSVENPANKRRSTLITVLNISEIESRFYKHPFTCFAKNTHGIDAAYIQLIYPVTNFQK


Target: T1, Recombinant human IL-1 RI protein …
Experiment: SPR; Biacore T200, CM5 chip; IL-1 RI immobilised by amine coupling to ~50 RU; analytes 0.04-5 nM Anakinra, 4-500 nM Asp. IL-1Ra; HBS-EP+ (0.01 M HEPES pH 7.4, 0.15 M NaCl, 3 mM EDTA, 0.005% P20); 25 °C; multicycle kinetics, 1:1 binding model
Settings: both partners purified

| Kd | koff | kon | Binder |
| --- | --- | --- | --- |
| 0.0346 nM | 0.00014 s⁻¹ | 4.25e+06 M⁻¹ s⁻¹ | Anakinra (Kineret), E. coli-expressed IL-1Ra (ligand, methionine residue added to the amino-terminal side; interleukin-1 receptor antagonist (IL-1Ra), non-glycosylated; Not the E. coli IL-1Ra donated by Dr. Cem Albayrak, which was used only in the stability studies; also called E. coli IL-1Ra (Anakinra); source: expressed in E. coli; Anakinra (Kineret) provided by Prof; Dr. Ahmet Gul (Istanbul University)) not shown |
| 2.06 nM | 0.00019 s⁻¹ | 93000 M⁻¹ s⁻¹ | Aspergillus oryzae-expressed IL-1Ra (interleukin-1 receptor antagonist) (ligand, N-glycosylated, methionine residue inserted at the N-terminus, similar to Anakinra; also called Asp; IL-1Ra; A. oryzae-expressed IL-1Ra) not shown |

— paper PMC10283290, “Expression and characterization of recombinant IL-1Ra in Aspergillus oryzae as a system” (BMC Biotechnology, 2023)
